Assay results taken from a collection of fitness landscapes (doi:10.1016/j.celrep.2020.107928).
Over roughly 81,000 sequences, “one-hybrid fitness for binding parS DNA” has its median near -0.17; the highest 2% begin near 0.51. The list shows a part of the results.

B1: Caulobacter ParB omega fusion; a variant is named by its letters at X, in order, B8GW30 (parent)
chain: MESVVVGEPGMSEGRRGLGRGLSALLGEVDAAPAQAPGEQLGGSREAPIEILQRNPDQPRRTFREEDLEDLSNSIREKGVLQPILVRPSPDTAGEYQIVAGERAWRAAQRAGLKTVPIMVRELDDLAVLEIGIIENVQRADLNVLEEALSYKVLMEKFERTQENIAQTIGKSXSHVANXMRLLXLPDEVQSYLVSGELTAXHARAIAAAADPVALAKQIIEGGLSVRETEALARKAPNLSAGKSKGGRPPRVKDTDTQALESDLSSVLGLDVSIDHRGSTGTLTITYATLEQLDDLCNRLTRGI

Variants of: B1
Assay: one-hybrid fitness for binding parS DNA (scaled: cognate 1, non-cognate 0); higher = stronger binding
Conditions: with parS DNA site
Summary of the method: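 Pre- and post-selection plasmids were Illumina-sequenced, three replicate libraries were pooled, and any variant with under 10 reads was removed. The libraries were Caulobacter ParB with four specificity codons randomised, selected in E. coli USO through a HIS3 reporter whose site is 19 bp from the promoter. Cells grew 48 hours at 37°C on M9 without histidine, with 0.1 mM IPTG and 5 mM 3-AT. Fitness is the log change in variant-to-wild-type read ratio, rescaled against cognate and non-cognate.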

Variant | one-hybrid fitness for binding parS DNA
TLNP | ≤ 0.2
VSFQ | ≤ 0.2
KVRE | ≤ 0.2
QNCL | ≤ 0.2
GPTE | ≤ 0.2
QWPI | ≤ 0.2
WNVS | ≤ 0.2
RHQP | ≤ 0.2
GKVC | ≤ 0.2
SEAS | ≤ 0.2
LNQP | ≤ 0.2
MWDV | ≤ 0.2
QKCT | ≤ 0.2
QLYC | ≤ 0.2
SDTE | ≤ 0.2
YGTT | ≤ 0.2
ATAK | ≤ 0.2
TSDN | ≤ 0.2
RVVQ | ≤ 0.2
MNLV | ≤ 0.2
TADW | ≤ 0.2
FHPG | ≤ 0.2
EEHA | ≤ 0.2
HYGC | ≤ 0.2
HGRS | ≤ 0.2

Variant | one-hybrid fitness for binding parS DNA
MEKR | ≤ 0.2
IEAG | ≤ 0.2
LWSR | ≤ 0.2
RGFS | 0.584
KTRQ | ≤ 0.2
ITSL | ≤ 0.2
NMGE | ≤ 0.2
QKTP | ≤ 0.2
GLPL | ≤ 0.2
LCEG | ≤ 0.2
TFLT | ≤ 0.2
FTPL | ≤ 0.2
MRCS | ≤ 0.2
RYML | ≤ 0.2
IICL | ≤ 0.2
TMWE | ≤ 0.2
PSWS | ≤ 0.2
QYQW | ≤ 0.2
AGFC | ≤ 0.2
SFCW | ≤ 0.2
RLAS | 1
AVKK | ≤ 0.2
QRIS | ≤ 0.2
PTTD | ≤ 0.2
QPAN | ≤ 0.2

Variant | one-hybrid fitness for binding parS DNA
PYDM | ≤ 0.2
SISV | ≤ 0.2
ACIY | ≤ 0.2
ALYR | ≤ 0.2
RSGN | 0.46
DSAD | ≤ 0.2
TKTY | ≤ 0.2
CVGC | ≤ 0.2
PDEM | ≤ 0.2
KPRH | ≤ 0.2
GATW | ≤ 0.2
QYMH | ≤ 0.2
FEKS | ≤ 0.2
THMK | ≤ 0.2
VPPE | ≤ 0.2
DKNH | ≤ 0.2
PSAT | ≤ 0.2
WSHY | ≤ 0.2
VVRE | ≤ 0.2
GVPP | ≤ 0.2
HAHS | ≤ 0.2
RKWR | ≤ 0.2
HSYR | ≤ 0.2
RNPY | ≤ 0.2
EKTH | ≤ 0.2

Variant | one-hybrid fitness for binding parS DNA
CDSR | ≤ 0.2
QEPG | ≤ 0.2
PASS | ≤ 0.2
PGET | ≤ 0.2
KNLS | ≤ 0.2
VAYS | ≤ 0.2
DFPR | ≤ 0.2
KTCG | ≤ 0.2
RVVD | ≤ 0.2
TTKV | ≤ 0.2
LCEE | ≤ 0.2
PCVN | ≤ 0.2
PSAR | ≤ 0.2
VQHR | ≤ 0.2
LGHI | ≤ 0.2
VNLH | ≤ 0.2
VATV | ≤ 0.2
LQYS | ≤ 0.2
YPKY | ≤ 0.2
DTTE | ≤ 0.2
PQIW | ≤ 0.2
GTPG | ≤ 0.2
